Measurements published in the RNAGym collection of RNA variant scans (doi:10.7554/elife.90254).
The source gives no read counts; variants with many changes may rest on few reads.

B1: OR4K15 (parent)
chain: GUUAACGGUCAUAGGCCAUGGAAACUAGGAGCACCAUUUCGCUGCCAGUGAAGAAAUGAACAAAGAAAAUCUGGGCCAGGCAGGCAUCAAAAGAAAUAGUCUUGCGCUCAACCAGAAAGUCUGUAAUCAUUUUAAGGGUA

Variants of: B1
Assay: self-cleavage, relative activity (ratio to wild type); higher = more cleavage; in vitro, sequencing; the parent is a self-cleaving ribozyme

| Variant | self-cleavage |
| --- | --- |
| GUUAACGGUCAUAGGCCAUGGAGACUAGGAGCACCAUUUCGCUGCCAGUAAGGAGAUGAACAAAGAAAAUCUGGGCCAGGCAGGCAUCAAAAGAAAUAGUCUUGCGCUCAACCAGAAAGUCUGUAAUCAUUUUAAGGGUA | 1.09 |
| GAUAACGGUCAUAGGCCGUGGAAACUGGGAGCACCAUUUCGCUGCCAGUGAGGAAAUGAACAAAGAAAAUCUGGGCCAGGCAGGCAUCAAAAGAAAUAGUCUUGCGCUCAACCAGAAAGUCUGUAAUCAUUUUAAGGGUA | 0.75 |
| GUUAACGGUCAUAGGCCAUGGAAACUAGGAGCACCAUUCCGCUGCCAGUGAAGAAAUGAACGAAGAAAAUCAGGGCCAGGCAGGCAUCAAAAGAAAUAGUCUUGCGCUCAACCAGAAAGUCUGUAAUCAUUUUAAGGGUA | 0.23 |
| GUUAACGGUCAUAGGCCAUGGAAACUAGGAGCACCAUUUCGCUGCCGGUGAAGAAGUGAACAAAGAAAAUCUGGGCCAGGCAGGCAUCAAAAGAAAUAGUCUUGAGCUCAACCAGAAAGUCUGUAAUCAUUUUAAGGGUA | 0.03 |
| GUUAACGGUCAUAGGCCAUGGAAACUAGGAGCGCCAUUACGCUGCCAGCGAGGAAAUGAACAAAGAAAAUCUGGGCCAGGCAGGCAUCAAAAGAAAUAGUCUUGCGCUCAACCAGAAAGUCUGUAAUCAUUUUAAGGGUA | 0.55 |
| GUUAACGGUCAUAGGCCAUGGAAACUAGGAGCACCAUUUCGCUGCCAGUGAAGAAAUGAUCGAAGAAAAUCUGGGCCAGGCAGGCAUCAAAAGAAAUAGUCCUGCGCUCAACCAGAAAGUCUGUAAUCAUUUUAAGGGUA | 2.25 |
| GUUAACGGUCAUAGGCCAUGGAAACUUGGAGCACCAUUUCGCUGCCAGUGAAGAAAUGAACAAAGAGAAUCUGGGCCAGGCAGGCAUCAAAAGAAGUAGUCUUGCGCUCAACCAGAAAGUCUGCAAUCAUUUUAAGGGUA | 0.49 |
| GUUAACGGUCAUAGGCCAUGGAAACUAGGAGCACCACUUCGCUGCCAGUGAAGAAAUGAACAAAGAAAAUCUGGGCCAGGCAGGCACCAAAAGAAAUAGUCUUGCGCUCGACCAGAAAGUCUGUAAUCAUUUUAAGGGUA | 0.05 |
| GUUAACGGUCAUAGGCCAUGGAAACUAGGAGCACCAUUUCGCUGCCAGUGAGGCAAUGAACAAGGAAAAUCUGGGCCAGGCAGGCAUCAAAAGAAAUAGUCUUGCGCUCAACCAGAAAGUCUGUAAUCAUCUUAAGGGUA | 1.6 |
| GGUAACGGUCAUAGGCCAUGGAAACUAGGAGCACCACUUCGCUGCCAGUGGAGAAAUGAACAAAGAAAAUCUGGGCCAGGCAGGCAUCAAAAGAAAUAGUCUUGCGCUCAACCAGAAAGUCUGUAAUCAUUUUAAGGGUA | 0.86 |
| GUUAACGGUCAUAGGCCAUGGAAACUAGGAGCACCAUUUCGCUGCCAGUGAAGAAGUGAGCAAAGAAAAUCUGGGCCAGGCAGGCAUCAAAAGAAAUAGUCUUGCGCUCAACCGGAAAGUCUGUAAUCAUUUUAAGGGUA | 0.37 |
| GUUAGCGGUCAUAGGCCAUGGAAGCUAGGAGCACCAUUUCGCUGCCGGUGAAGAAAUGAACAAAGAGAAUCUGGGCCAGGCAGGCAUCAAAAGAAAUAGUCUUGCGCUCAACCAGAAAGUCUGUAAUCAUUUUAAGGGUA | 1.85 |
| GUUAACGGUCAUAGGCCAUGGAAACUAGGAGCACCAUUUCGCUGCCAGUGAAGAAAUGAACAAAGAAAAUCUGGGCCAGGCUGGCAUCUGAAGAAAUAGUCUUGCGCUCAACCAGAAAGUCUGUAAUCAUUUUAAGGGUA | 0.07 |
| GUUAACGGUCAUAGGCCAUGGAAACUAGGAGCACCAUUUCGCUGCCAGUGGAGAAAUGAACAAAGAAAAUCUGGGCCAGGCAGGCAUCAGAAGAAAUAGUCUUGUGCUCAACCAGAAAGUCUGUAAUCAUUUUAAGGGUA | 0.04 |
| GUUAACGGUCAUAGGCCAUGGAAAUUAGGAGCACCAUUUCGCUGCCAGUGAAGAAAUGAACAAAGAAGAUCUGGGCCAGGCAGGCAUCAAAAGAAAUAGCCUUGCGCUCAACCAGAAAGUCUGUAAUCAUUUUAAGGGUA | 1.61 |
| GUUAACGGUCAUAGGCCAUGGAAACUAGGAGCACCAUUUCGCUGCCAGUGGAGAAACGAACAGAGAAAAUCUGGGCCAGGCAGGCAUCUAAAGAAAUAGUCUUGCGCUCAACCAGAAAGUCUGUAAUCAUUUUAAGGGUA | 0.56 |
| GUUAACGGUCAUGGGCCAUGGAAACUAGGAGCACCAUUUCGCCGCCAGUGAAGAAAUGAACAAAGAAAAUCUGGGCCUGGCAGGCAUCAAAAGAAAUAGUCUUGCGCUCAACCAGAAAGUCUGUAACCAUUUUAAGGGUA | 0.18 |
| GUUAACGGUCAUAGGCCGUGGAAACUAGGAGCACCAUUUCGCUGCCAGUGAAGAAAUGGACAAAGAAAGUCUGGGCCAGGCAGGCAUCAAAAGAAAUAGUCUUGCGCUCAACCAGAAAGUCUGUAAUCAUUUUAAGGGUA | 1.62 |
| GUUAACGGACAUAGGCCACGGAAACUAGGAGCACCAUUUCGCUGCCAGUGAAGAAACGAACAAAGAAAAUCUGGGCCAGGCAGGCAUCAGAAGAAAUAGUCUUGCGCUCAACCAGAAAGUCUGUAAUAAUUUCAAGGGUA | 0.76 |
| GUUAACGGUCAUAGGCCAUGGAAACUAGGAGCACCAUUUCGCUGCCAGUGAAGAAAUGAACAAAGAAAAUCUGGGCCAGGCAGGCAACAAGAGAAAUAGUCUUGCGCUCAACCAGAAAGCCUGUAAUCAUUUUAAGGGUA | 0.22 |
| GUUAACGGUCAUAGGCCAUGGAAACUAGGAGCACCAUUUCGCUGCCCGUGAAGAAAUGAACAAAGAAAAUCUGGGCCAGGCGGGCAUCAAAAGAAAUAGUCUUGCGCUCAACCAGAAAGUCUGUAGUCAUUUUAAGGGUA | 0.08 |

| Variant | self-cleavage |
| --- | --- |
| GUUAACGGUCAUAGGCCAUGGAAACUAGGAGCACCAUUUCGCCGCCAGUGAAGAAAUGAACAAAGAAAAUCUGGGCCAGGCAGGCAUCAAAAGAAAUAGUCUGGCGCUCAACCAGAAAGUCUGUAAUCAUCUUAAGGGUA | 0.03 |
| GUUAACGGUCAUAGGCCAUGGAAACUAGGAGUACCAUUUCGCUGCCAGUGAAGAAAUGAGCAAAGAAAAUCUGGGCCAGGCAGGCAUCAAAAGAAAUAGUCUUGCGCUCAACCAGAAGGUCUGUAAUCAUUUUAAGGGUA | 0.41 |
| GUUAACGGUCAUAGGCCAUGGAGACUAGGAGCACCAUUUCGCUGCCGGUGAAGAAAUGAACAAAGAAAAUCUGGGCCAGGCAGGCGUCAAAAGAAAUAGUCUUGCGCUCAACCAGAAAGUCUGUAAUCAUUUUAAGGGUA | 2.13 |
| GUUAACGGUCAUAGGCCACGGAAACUAGGAGCACCAUUUCGCUGCCAGUGAAGAAAUGGACAAAGAAAAUCUGGGCCAGGCAGGCAUCAAAAGAAAUAGUCUUGCGCUCAACCAGAAAGUCUAUAAUCAUUUUAAGGGUA | 1.18 |
| GUUAACGGUCAUAGGCCAUGGAAACAAGGAGCACCAUUUCGCUGCCAGUGAAGAAAUGAACAAAGAAAACCUGGGCCAGGCAGGCAUCAAAAGAAAUAGUCUUGCGCUCAACCAGAGAGUCUGUAAUCAUUUUAAGGGUA | 0.47 |
| GUUAACGGUCAUAGGCCAUGGAAGCUAGGAGCACCAUUUCGCUGCCAGUGAAGUAAUGAACAAAGAAAAUCUGGGCCAGGCAGGCAUCAAGAGAAAUAGUCUUGCGCUCAACCAGAAAGUCUGUAAUCAUUUUAAGGGUG | 1.37 |
| GAUAACGGUCAUAGGCCAUGGAAACUAGGAGCACCAUUUCGCUGCCAGUGAAGAAAUGAACAAAGAAAAUCUGGGCCAGGCAGGCAUCAAUAGAAAUAGUCUUGCGCUCAACCAGAAAGUCUGUAAUCAUUUUGAGGGUA | 0.82 |
| GUCAACGGUCAUAGGCCAUGGAAGCUAGGAGCACCAUUUCGCUGCCAGUGAAGAAAUGAACAAAGAAAAUCUGGGCCAGGCAGGCGUCAAAAGAAAUAGUCUUGCGCUCAACCAGAAAGUCUGUAAUCACUUUAAGGGUA | 0.46 |
| GUUAACGAUCAUAGGCCAUGGAAACUAGGAGCACCAUUUCGCUGCCAGUGAAGAAAUGGACAAAGAAAAUCUGGGCCAUGCAGGCAUCAAAAGAAAUAGUCUUGCGCUCAACCAGAAAGUCUGUAAUCAUUUUAAGGGUA | 0.15 |
| GUUAACGGCCAUAGGCCAUGGGAACUAGGAGCACCAUUUCGCUGCCAGUGAAGAAAUGAACAAAGAAAAUCUGGGCCAGGCGGGCAUCAAAAGAAAUAGUCUUGCGCUCAACCAGAAAGUCUGUAAUCAUUUUAAGGGUA | 0.45 |
| GUUAACGGUCAUAGGCCAUGGAAACUAGGAGCACCAUCUCGCUGCCAGUGAAGAAAUGAACAAAGAAAAUCUGGGCCAGGCAGGUAUCAAAAGAAAUAGUCUUGCGCUCGACCAGAAAGUCUGUAAUCAUUUUAAGGGUA | 0.11 |
| GUUAACGGUCAUAGGCCAUGGAAACUAGGAGCACCAUCUCGCUGCCGGUGAAGAAAUGAACAAAGAAGAUCUGGGCCAGGUAGGCAUCAAAAGAAAUAGUCUUGCGCUCAACCAGAAGGUCUGUAACCAUUUUAAGGGUG | 0.01 |
| GUUAACGGUCAUAGGCCAUGGAAACUAGGAGCACCAUUUCGCUGCCAGUGAAGAAAUGAACAAAGAAAAUCUGGGCCAGGCAGGCAUCAAAAGAAACAGCCUUGCGCUCAACCAGAAAGUCCGUAAUCAUCUUAAGGGUA | 1.66 |
| GUUAACGGUCAUAGGCCAUGGAAACUAGGAGCACCAUUUCGCUGCCAGUGAAGGAAUGAACAAAGAAAAUCUGGGCCAGGCAGGCACCAAAAGAAAUAGUCUUGCGCUCAACCAGAAAGUCAGUAAUCAUUUUAAGGGUA | 1.06 |
| GUUAACAGUCAUAGGCCAUGGAAACUAGGAGCACCAUUCCGCUGCCAGUGAAGAAAUGAACAAAGAAAAUCUGGGCCAGGCUGGCAUCAAAAGAAAUAGUCUUGCGCUCAACCAGAAAGUCUGUAAUCAUUUUAAGGGUA | 0.36 |
| GUUAACGGUCAUAGGCCAUGGAAACUAGGAGCACCAUUCCGCUGCCUGUGAAGAAAUGAACAAAGAAAAUCUGGGCUAGGCAGGCAUCAAAAGAAAUAGUCUUGCGCUCAACCAGAAAGUCUGUAAUCAUUUAAAGGGUA | 1.42 |
| GUUAACGGUCAUAGGCCAUGGAAACUAGGAGCACCACUUCGCUGCCAGUGAAGAAAUGAACAAAGAAAAUCUGGGCCAGGCAGGCAUCAAAAGAAAUAGUCUUGCGCUCAACCAGAAAGUCUGUAAUCACUUUAAGGGUG | 0.87 |
| GUUAACGGUCAUAGGCCAUGGAAACUAGGGGCACUAUUUCGCUGCCAGUGAAGAAAUGAACAAAGAAAAUCUGGGCCAGGCAGGCAUCAAAAGAAAUAGUCUUGCGCUCAACCUGAAAGUCCGUAAUCAUUUUAAGGGUA | 0.03 |
| GUUAACGGACAUAGGCCAUGGAAACUAGGAGCACCAUUUCGCUGCCAGUGAAGAAAAGAACAAAGAAAAUCUGGGCCAGGCAGGCAUCAAAAGAAAUAGUCUUGCGCUCAACCAGAAUGUCUGUAAUCAUUUUAAGGGUA | 0.38 |
| GUUAACGGUCAAAGGCCAUGGAAACUAGGAGCACCAUUACGCUGCCAGUGAAGAAAUGAACAAGGAAAAUCUGGGCCAGGCAGGCAUCAAAAGAAAUAGUCUUGCGCCCAACCAGAAAGUCCGUAAUCAUUUUAAGGGUA | 0.02 |
